This note sets out measurements from PubChem BioAssay AID1645882 (National Center for Advancing Translational Sciences (NCATS), 2021).

Structures are written as SMILES. Hit rate of the full screen: of about 16,000 compounds, about 120 (0.75%) were called active. Another 4% or so got no clear call; they are omitted. Calls follow the shape of the dose curve; as a rule, active = well fitted inhibition curve with a large enough effect; inconclusive = small, poorly fitted or top-dose-only effect; inactive = no such curve, though single readings can be large or run the other way. The list shows a part of the results. Where a SMILES comes first, the peptide text is derived from it. [ ]: non-standard residue; d: D form. The star is where a group is joined. Sta = CC(C)C[C@H](N)[C@@H](O)CC(=O)O; Isovaleryl = CC(C)CC(=O)*

UniProt O95398, sequence (O95398 whole entry, looked up): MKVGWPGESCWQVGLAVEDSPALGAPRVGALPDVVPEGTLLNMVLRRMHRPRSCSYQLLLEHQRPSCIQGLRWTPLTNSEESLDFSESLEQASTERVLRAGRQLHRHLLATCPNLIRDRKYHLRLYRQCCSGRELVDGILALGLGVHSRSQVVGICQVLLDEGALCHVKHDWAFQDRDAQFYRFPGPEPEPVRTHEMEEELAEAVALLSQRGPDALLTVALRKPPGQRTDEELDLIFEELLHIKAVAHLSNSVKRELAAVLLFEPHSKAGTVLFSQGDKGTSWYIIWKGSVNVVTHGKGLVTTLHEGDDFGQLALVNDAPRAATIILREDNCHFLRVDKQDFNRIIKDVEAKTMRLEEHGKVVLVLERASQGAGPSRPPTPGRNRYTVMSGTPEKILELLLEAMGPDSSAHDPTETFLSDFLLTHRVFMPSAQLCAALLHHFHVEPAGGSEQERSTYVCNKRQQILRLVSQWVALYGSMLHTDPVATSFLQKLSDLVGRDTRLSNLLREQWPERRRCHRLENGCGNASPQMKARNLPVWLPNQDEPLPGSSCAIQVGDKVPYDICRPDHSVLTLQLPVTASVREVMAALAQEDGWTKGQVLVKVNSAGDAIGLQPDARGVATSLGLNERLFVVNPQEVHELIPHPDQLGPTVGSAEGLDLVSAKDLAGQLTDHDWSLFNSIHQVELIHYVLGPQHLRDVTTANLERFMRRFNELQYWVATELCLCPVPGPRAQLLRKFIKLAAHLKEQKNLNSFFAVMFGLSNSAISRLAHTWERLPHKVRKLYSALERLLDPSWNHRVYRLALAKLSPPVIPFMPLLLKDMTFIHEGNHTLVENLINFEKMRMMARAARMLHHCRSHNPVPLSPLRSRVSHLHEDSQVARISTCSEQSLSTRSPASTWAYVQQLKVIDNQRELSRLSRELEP

This test concerns the target Rap guanine nucleotide exchange factor 3 (Homo sapiens) (UniProt O95398). Description: Validation qHTS for antagonist of cAMP-regulated guanine nucleotide exchange factor 3 (EPAC1).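 Also: plate controls were DMSO for no effect and ATA control for full effect; nearly all actives have a fitted effect of over 75% in size.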 The note with it: EPAC1 Rap1B-BODIPY-GDP exchange, fluorescence; series mostly up to 150 µM; activity change, negative = inhibition: at the top concentration. In a few lines:
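Nucleotide exchange followed as fluorescence loss when BODIPY-GDP leaves Rap1B (480 nm excitation, 540 nm emission), read at 5 min intervals over 30 min. Reaction: 100 nM EPAC1, 250 nM RAP1B-BODIPY-GDP, 50 uM GDP; ATA and DMSO define normalization.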
A general note: qHTS replaces the single test concentration by a dilution series.
Regarding `COc1cc(OC)c(OC)cc1CN1CCOc2ccc(CN3C[C@@H](C)O[C@@H](C)C3)cc2C1`, the “activity change, negative = inhibition” value was inactive: 15.5%.

In the case of `CC1(C)C(O)C=C[C@@]2(C)C1CC(=O)O[C@@]1(C)C3=CC(=O)OC(c4ccoc4)[C@]3(C)CCC21` (stereo partly specified), the “activity change, negative = inhibition” value was inactive: -12%.

On to `COC(=O)c1ccc(O)cc1`, for which the “activity change, negative = inhibition” value was inactive: 26.6%.

`COc1c(-c2ccc(O)c(O)c2)oc2cc(O)cc(O)c2c1=O`: the “activity change, negative = inhibition” value was inactive: -17.7%.

In the case of `FC(F)(F)c1ccccc1-c1cncnc1Nc1ccccc1`, the “activity change, negative = inhibition” value was inactive: 15.4%.

As to `COc1ccc(Oc2ncc3nc(-c4ccc(OC)cc4)c(=O)n(CCC#N)c3n2)cc1`, the “activity change, negative = inhibition” value is inactive: 13.6%.

Take `C[C@@H]1C[C@H]2[C@@H]3C[C@H](F)C4=CC(=O)C(Cl)=C[C@]4(C)[C@@]3(F)[C@@H](O)C[C@]2(C)[C@@]1(O)C(=O)CO`: the “activity change, negative = inhibition” value was inactive: 4.42%.

As for `O=C(c1csnn1)N1CCC2(CC1)CN(Cc1cc(C(F)(F)F)cc(C(F)(F)F)c1)C2`, the “activity change, negative = inhibition” value is inactive: 4.06%.

As for `C=CCN1CCc2c(cc(O)c(O)c2Br)[C@@H](c2ccccc2)C1`, the activity change, negative = inhibition entry is “inactive”.

As to `Cc1ccc(SC[C@H](Cc2ccccc2)N2CC[C@@H](C)CCC2=O)cc1`, the “activity change, negative = inhibition” value is inactive: 0.679%.

For `NC(=O)C1CCCN(Cc2ccc3c(c2)CN(Cc2cn[nH]c2-c2ccc(F)cc2)CCO3)C1` (stereo unspecified), the “activity change, negative = inhibition” value is inactive: 11.3%.

`Nc1ccn([C@@H]2O[C@H](CO)[C@H](O)C2(F)F)c(=O)n1`: the “activity change, negative = inhibition” value is inactive: -0.378%.

Turning to `COC(=O)C[C@H]1c2cc(F)ccc2S(=O)(=O)N1Cc1ccccc1`, the “activity change, negative = inhibition” value was inactive: 8.59%.

With `CC(=O)N1CCN(C(=O)c2sc3ncnc(NCC4CCCO4)c3c2C)CC1` (stereo unspecified), the “activity change, negative = inhibition” value was inactive: -4.54%.

As for `Cc1c(C(=O)N2CCCCC2c2cccnc2)sc2ncnc(NCc3cccs3)c12` (stereo unspecified), the “activity change, negative = inhibition” value was inactive: 0.719%.

In the case of `Nc1nc2c(nc(Br)n2C2CC(O)C(CO)O2)c(=O)[nH]1` (stereo unspecified), the “activity change, negative = inhibition” value was inactive: 13.3%.

For `Cc1cnc(C)c(-c2ccc(F)c3c2OC(CNC(=O)Cc2c(F)cccc2F)C3)n1` (stereo unspecified), the “activity change, negative = inhibition” value is inactive: 0.688%.

Regarding `CCOC(=O)C12CC1/C(=N/O)c1ccccc1O2` (stereo unspecified), the “activity change, negative = inhibition” value is inactive: -1.93% [at 75.8 µM].

Regarding `CCC1CN(CCC(=O)N2CCN(c3ncccn3)CC2)Cc2cc(OC)ccc2O1` (stereo unspecified), the “activity change, negative = inhibition” value was inactive: 26.2%.

On to `COCc1c(C(=O)N2CCC(c3ccccc3)CC2)cnn1-c1nccc(-c2cc(C)sc2C)n1`, for which the “activity change, negative = inhibition” value was inactive: -3.77%.

For the molecule `O=c1cc[nH]c(=S)[nH]1`, the “activity change, negative = inhibition” value is inactive: 13.5%.

With `CCCCC/C=C\C\C=C/C=C/C=C/[C@@H](SC[C@H](N)C(=O)O)[C@@H](O)CCCC(=O)O`, the activity change, negative = inhibition is inactive: 19.2% [at 1.57 µM].

`c1ccc(CCNc2nc(-c3ccccc3)cs2)cc1`: the “activity change, negative = inhibition” value was inactive: -8.16%.

For `Cc1cnc(SCc2ccccn2)nc1C1CCCN(C(=O)c2noc3c2CCCC3)C1` (stereo unspecified), the “activity change, negative = inhibition” value was inactive: 12.5%.

With `Cc1nc2cnc(N3CCNCC3)nc2n(CCc2ccccc2)c1=O`, the “activity change, negative = inhibition” value is inactive: -3.54%.

Turning to `CC(C)CC(=O)N[C@H](C(=O)N[C@H](C(=O)N[C@@H](CC(C)C)[C@@H](O)CC(=O)N[C@@H](C)C(=O)N[C@@H](CC(C)C)[C@@H](O)CC(=O)O)C(C)C)C(C)C` (Isovaleryl-VV[Sta]A[Sta]-OH), the activity change, negative = inhibition entry was “inactive”.

On to `Cc1onc(-c2ccccc2)c1C(=O)NC1C(=O)N2C(C(=O)O)C(C)(C)S[C@@H]12` (stereo partly specified), for which the “activity change, negative = inhibition” value was inactive: 3.53%.

`CO[C@H]1[C@H](NC(=O)c2ccsc2)c2ccccc2C12CCN(Cc1cc3ccccc3o1)CC2`: the “activity change, negative = inhibition” value is inactive: -12.6%.

Turning to `CCC(C(=O)O)c1ccccc1` (stereo unspecified), the “activity change, negative = inhibition” value is inactive: 7.49%.

On to `COc1cccc(Cn2c(=O)c(C)nc3cnc(OC)nc32)c1`, for which the “activity change, negative = inhibition” value is inactive: 19.2%.

`CCN(CC)CCOc1ccc2nc(N(C)C)sc2c1`: the “activity change, negative = inhibition” value was inactive: 0.343%.

As to `c1ccc(C(NCc2cccnc2)(c2ccccc2)c2ccccc2)cc1`, the “activity change, negative = inhibition” value is inactive: -2.45% [at 75.8 µM].

As to `Cc1cnc(CNc2nc(-c3cccnc3)nc3ccccc23)cn1`, the “activity change, negative = inhibition” value was inactive: 10%.

Consider `Cc1cccc(C#Cc2ccccc2)n1`, for which the activity change, negative = inhibition result was “inactive”.

As to `N[C@H](C(=O)O)c1cc(O)cc(O)c1`, the activity change, negative = inhibition entry was “inactive”.

Turning to `CNc1cc(-c2c(C)noc2C)ncn1`, the “activity change, negative = inhibition” value is inactive: -16.3%.

Take `C[C@@](N)(C(=O)O)c1ccc(P(=O)(O)O)cc1`: the “activity change, negative = inhibition” value was inactive: 5.12%.

Consider `CCc1nc2cc(C(=O)N[C@H]3CCCCNC3=O)cc(NC(=O)c3ccccc3OC)c2n1C`, for which the “activity change, negative = inhibition” value is inactive: 19.4%.

Turning to `C[C@H](O)C(=O)Nc1c(I)c(C(=O)NC(CO)CO)c(I)c(C(=O)NC(CO)CO)c1I`, the “activity change, negative = inhibition” value was inactive: 12.9% [at 75.8 µM].

In the case of `CCCC(=O)NCCc1c2n(c3ccc(OC)cc13)CCCc1ccccc1-2`, the “activity change, negative = inhibition” value was inactive: -13.2% [at 75.8 µM].

With `O=C1CC2(CCCC2)CC(=O)N1CCCCN1CCN(c2ncccn2)CC1`, the activity change, negative = inhibition result is “inactive”.

With `COc1ccc(N2CCN(C(=O)c3cc(NC(C)=O)c4c(c3)ncn4CCc3ccccn3)CC2)cc1`, the “activity change, negative = inhibition” value was inactive: -0.21%.

With `COc1ccccc1CN1[C@@H](CC(=O)O)c2ccccc2S1(=O)=O`, the “activity change, negative = inhibition” value was inactive: 7.23%.

In the case of `Cc1cc2c(cc1Cl)N(C(=O)Nc1ccnc3ccccc13)CC2`, the “activity change, negative = inhibition” value is inactive: -0.206% [at 75.8 µM].

As for `C=CC[N+]1([C@H]2C[C@H]3[C@@H]4CC[C@H]5C[C@H](OC(C)=O)[C@@H](N6CCCCC6)C[C@]5(C)[C@H]4CC[C@]3(C)[C@H]2OC(=O)CC)CCCCC1`, the “activity change, negative = inhibition” value is inactive: 39.6%.

As to `CN/C(=C\[N+](=O)[O-])NCCSCc1csc(CN(C)C)n1`, the “activity change, negative = inhibition” value was inactive: 8.6% [at 75.8 µM].

For the molecule `Cc1cc(C)c(/C=C2\C(=O)Nc3ccccc32)[nH]1`, the activity change, negative = inhibition entry is “inactive”.

On to `O=C(NOC[C@H](O)CO)c1ccc(F)c(F)c1Nc1ccc(I)cc1F`, for which the “activity change, negative = inhibition” value was inactive: 33.3%.

`COc1ccc(-n2c(=O)c(-c3ccc(Cl)cc3)nc3cnc(N4CCNCC4)nc32)cc1`: the “activity change, negative = inhibition” value was inactive: -0.258%.

As for `Cc1cnc(SCc2ccccn2)nc1C1CCCN(C(=O)c2cc3ccccc3oc2=O)C1` (stereo unspecified), the “activity change, negative = inhibition” value is inactive: -0.115%.

As for `COc1ccc(OC)c(CN2CCCC(c3nc(C)ncc3-c3ccc(F)cc3)C2)c1` (stereo unspecified), the “activity change, negative = inhibition” value is inactive: 9.73%.
